In article PMC8178691:

Key:
[1] = molecular target: Human type IV collagen (human) (UniProt P02462); assay: BLI
[2] = molecular target: human purified plasma‐derived fibronectin (human); assay: BLI
[3] = molecular target: human purified plasma‐derived fibronectin (human); assay: ELISA

Kd [1] [nM] | Kd [2] | binding as percent of normal VWF [3] [%] | Substance
2.25 | 1.63 nM and 2.62 nM and 1.36 nM |  | Wild‐type (WT) human recombinant von Willebrand factor (a stretch of the chain, sequence not shown) (natural protein)
 |  | 70 | recombinant VWF p.H1786D (a stretch of the chain, sequence not shown) (natural protein)
 |  | 64 | recombinant VWF p.T791M (a stretch of the chain, sequence not shown) (natural protein)

Values joined by “and” are separate entries in the source; they are usually repeats but may differ in a detail not shown here. Equal values may be shown once.
